Laboratory results reported in the supplement of paper PMC8728848.
This is one part of the list.

Legend:
Experiment in all cases: glycan array binding signal (z-score within array); higher = stronger binding
Conditions in all cases: glycan notation: IUPAC condensed, linker removed
[1] = molecular target: Neu5Ac(a2-3)Gal(b1-3)GalNAc(b1-3)Gal(a1-4)Gal(b1-4)Glc
How it was run: (§1)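 Arrays were curated from the Consortium for Functional Glycomics database, 3228 in total, and kept only where the protein sequence was available. Binding is expressed as a within-array Z-score. This score was averaged across arrays of the same protein sequence at different concentrations or buffers and across linkers, and negative values can be read as non-binding.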

[2] = molecular target: Neu5Ac(a2-3)Gal(b1-3)GalNAc(b1-4)[Neu5Ac(a2-3)]Gal(b1-4)Glc
How it was run: as §1

[3] = molecular target: Neu5Ac(a2-3)Gal(b1-3)GalNAc6S
How it was run: as §1

[4] = molecular target: Neu5Ac(a2-3)Gal(b1-3)GlcNAc
How it was run: as §1

[5] = molecular target: Neu5Ac(a2-3)Gal(b1-3)GlcNAc(b1-3)Gal(b1-4)GlcNAc
How it was run: as §1

[6] = molecular target: Neu5Ac(a2-3)Gal(b1-3)GlcNAc6S
How it was run: as §1

[7] = molecular target: Neu5Ac(a2-3)Gal(b1-3)[Fuc(a1-4)]GlcNAc
How it was run: as §1

[8] = molecular target: Neu5Ac(a2-3)Gal(b1-3)[Fuc(a1-4)]GlcNAc(b1-3)Gal(b1-4)[Fuc(a1-3)]GlcNAc
How it was run: as §1

[9] = molecular target: Neu5Ac(a2-3)Gal(b1-3)[Neu5Ac(a2-3)Gal(b1-4)]GlcNAc
How it was run: as §1

[10] = molecular target: Neu5Ac(a2-3)Gal(b1-3)[Neu5Ac(a2-6)]GalNAc
How it was run: as §1

Neu5Ac(a2-3)Gal(b1-4)Glc = molecular target: Neu5Ac(a2-3)Gal(b1-4)Glc
How it was run: as §1

[11] = molecular target: Neu5Ac(a2-3)Gal(b1-4)GlcNAc
How it was run: as §1

[12] = molecular target: Neu5Ac(a2-3)Gal(b1-4)GlcNAc(b1-3)Gal(b1-4)GlcNAc
How it was run: as §1

[13] = molecular target: Neu5Ac(a2-3)Gal(b1-4)GlcNAc(b1-3)Gal(b1-4)GlcNAc(b1-3)Gal(b1-4)GlcNAc
How it was run: as §1

[14] = molecular target: Neu5Ac(a2-3)Gal(b1-4)GlcNAc(b1-3)Gal(b1-4)[Fuc(a1-3)]GlcNAc
How it was run: as §1

[15] = molecular target: Neu5Ac(a2-3)Gal(b1-4)GlcNAc6S
How it was run: as §1

[16] = molecular target: Neu5Ac(a2-3)Gal(b1-4)[Fuc(a1-3)]GlcNAc
How it was run: as §1

[17] = molecular target: Neu5Ac(a2-3)Gal(b1-4)[Fuc(a1-3)]GlcNAc(b1-3)Gal
How it was run: as §1

[18] = molecular target: Neu5Ac(a2-3)Gal(b1-4)[Fuc(a1-3)]GlcNAc(b1-3)Gal(b1-4)GlcNAc
How it was run: as §1

[19] = molecular target: Neu5Ac(a2-3)Gal(b1-4)[Fuc(a1-3)]GlcNAc(b1-3)Gal(b1-4)[Fuc(a1-3)]GlcNAc(b1-3)Gal(b1-4)[Fuc(a1-3)]GlcNAc
How it was run: as §1

[20] = molecular target: Neu5Ac(a2-3)Gal(b1-4)[Fuc(a1-3)]GlcNAc6S
How it was run: as §1

[21] = molecular target: Neu5Ac(a2-3)Gal6S(b1-4)GlcNAc
How it was run: as §1

[22] = molecular target: Neu5Ac(a2-3)Gal6S(b1-4)[Fuc(a1-3)]GlcNAc
How it was run: as §1

Neu5Ac(a2-3)GalNAc = molecular target: Neu5Ac(a2-3)GalNAc
How it was run: as §1

[23] = molecular target: Neu5Ac(a2-3)GalNAc(b1-4)GlcNAc
How it was run: as §1

[24] = molecular target: Neu5Ac(a2-3)[GalNAc(b1-4)]Gal(b1-4)Glc
How it was run: as §1

[25] = molecular target: Neu5Ac(a2-3)[GalNAc(b1-4)]Gal(b1-4)GlcNAc
How it was run: as §1

[26] = molecular target: Neu5Ac(a2-3)[Neu5Ac(a2-6)]GalNAc
How it was run: as §1

[27] = molecular target: Neu5Ac(a2-6)Gal(b1-4)GlcNAc
How it was run: as §1

[28] = molecular target: Neu5Ac(a2-6)Gal(b1-4)GlcNAc(b1-2)Man(a1-3)[Neu5Ac(a2-6)Gal(b1-4)GlcNAc(b1-2)Man(a1-6)]Man(b1-4)GlcNAc(b1-4)GlcNAc
How it was run: as §1

[29] = molecular target: Neu5Ac(a2-6)Gal(b1-4)GlcNAc(b1-3)Gal(b1-4)GlcNAc
How it was run: as §1

[30] = molecular target: Neu5Ac(a2-6)Gal(b1-4)GlcNAc(b1-3)Gal(b1-4)[Fuc(a1-3)]GlcNAc(b1-3)Gal(b1-4)[Fuc(a1-3)]GlcNAc
How it was run: as §1

[31] = molecular target: Neu5Ac(a2-6)Gal(b1-4)GlcNAc6S
How it was run: as §1

Neu5Ac(a2-6)GalNAc = molecular target: Neu5Ac(a2-6)GalNAc
How it was run: as §1

[32] = molecular target: Neu5Ac(a2-6)GalNAc(b1-4)GlcNAc
How it was run: as §1

Neu5Ac(a2-8)Neu5Ac = molecular target: Neu5Ac(a2-8)Neu5Ac
How it was run: as §1

[33] = molecular target: Neu5Ac(a2-8)Neu5Ac(a2-3)Gal(b1-4)Glc
How it was run: as §1

[34] = molecular target: Neu5Ac(a2-8)Neu5Ac(a2-3)[GalNAc(b1-4)]Gal(b1-4)Glc
How it was run: as §1

[35] = molecular target: Neu5Ac(a2-8)Neu5Ac(a2-8)Neu5Ac
How it was run: as §1

[36] = molecular target: Neu5Ac(a2-8)Neu5Ac(a2-8)Neu5Ac(a2-3)Gal(b1-4)Glc
How it was run: as §1

[37] = molecular target: Neu5Ac(a2-8)Neu5Ac(a2-8)Neu5Ac(a2-3)[GalNAc(b1-4)]Gal(b1-4)Glc
How it was run: as §1

[38] = molecular target: Neu5Ac(a2-8)Neu5Ac(a2-8)Neu5Ac(a2-8)Neu5Ac(a2-3)[GalNAc(b1-4)]Gal(b1-4)Glc
How it was run: as §1

[39] = molecular target: Neu5Ac9Ac(a2-6)Gal(b1-4)GlcNAc
How it was run: as §1

[40] = molecular target: Neu5Gc(a2-3)Gal(b1-3)GlcNAc
How it was run: as §1

[41] = molecular target: Neu5Gc(a2-3)Gal(b1-3)[Fuc(a1-4)]GlcNAc
How it was run: as §1

Neu5Gc(a2-3)Gal(b1-4)Glc = molecular target: Neu5Gc(a2-3)Gal(b1-4)Glc
How it was run: as §1

[42] = molecular target: Neu5Gc(a2-3)Gal(b1-4)GlcNAc
How it was run: as §1

[43] = molecular target: Neu5Gc(a2-3)Gal(b1-4)[Fuc(a1-4)]GlcNAc
How it was run: as §1

[44] = molecular target: Neu5Gc(a2-6)Gal(b1-4)GlcNAc
How it was run: as §1

Neu5Gc(a2-6)GalNAc = molecular target: Neu5Gc(a2-6)GalNAc
How it was run: as §1

B1: TbCVNHOa (Tuber borchii), Q5MK11 (protein)
chain: GSHIGPYMSYADSSRNAVLTNGGRTLRAECRNADGNWVTSELDLDTCIGNPNGFLGWGMQNFSHSSEDIKLEEGGRKLTCRPKTVDGGFRERQGIDLNRIQNVNGRLVFQ
glycan array binding signal (z-score) [1]: 0.009
glycan array binding signal (z-score) [2]: -0.288
glycan array binding signal (z-score) [3]: -0.261
glycan array binding signal (z-score) [4]: -0.268
glycan array binding signal (z-score) [5]: -0.294
glycan array binding signal (z-score) [6]: -0.18
glycan array binding signal (z-score) [7]: -0.287
glycan array binding signal (z-score) [8]: -0.055
glycan array binding signal (z-score) [9]: -0.278
glycan array binding signal (z-score) [10]: -0.302
glycan array binding signal (z-score) (Neu5Ac(a2-3)Gal(b1-4)Glc): 0.706
glycan array binding signal (z-score) [11]: -0.283
glycan array binding signal (z-score) [12]: -0.29
glycan array binding signal (z-score) [13]: -0.275
glycan array binding signal (z-score) [14]: 0.517
glycan array binding signal (z-score) [15]: -0.236
glycan array binding signal (z-score) [16]: -0.284
glycan array binding signal (z-score) [17]: -0.258
glycan array binding signal (z-score) [18]: -0.137
glycan array binding signal (z-score) [19]: -0.257
glycan array binding signal (z-score) [20]: -0.196
glycan array binding signal (z-score) [21]: -0.038
glycan array binding signal (z-score) [22]: -0.031
glycan array binding signal (z-score) (Neu5Ac(a2-3)GalNAc): -0.207
glycan array binding signal (z-score) [23]: -0.279
glycan array binding signal (z-score) [24]: -0.284
glycan array binding signal (z-score) [25]: -0.245
glycan array binding signal (z-score) [26]: -0.295
glycan array binding signal (z-score) [27]: -0.287
glycan array binding signal (z-score) [28]: -0.258
glycan array binding signal (z-score) [29]: -0.323
glycan array binding signal (z-score) [30]: -0.242
glycan array binding signal (z-score) [31]: -0.286
glycan array binding signal (z-score) (Neu5Ac(a2-6)GalNAc): -0.284
glycan array binding signal (z-score) [32]: -0.262
glycan array binding signal (z-score) (Neu5Ac(a2-8)Neu5Ac): -0.264
glycan array binding signal (z-score) [33]: -0.285
glycan array binding signal (z-score) [34]: -0.298
glycan array binding signal (z-score) [35]: -0.231
glycan array binding signal (z-score) [36]: -0.202
glycan array binding signal (z-score) [37]: -0.278
glycan array binding signal (z-score) [38]: -0.285
glycan array binding signal (z-score) [39]: -0.231
glycan array binding signal (z-score) [40]: -0.288
glycan array binding signal (z-score) [41]: -0.288
glycan array binding signal (z-score) (Neu5Gc(a2-3)Gal(b1-4)Glc): -0.244
glycan array binding signal (z-score) [42]: -0.209
glycan array binding signal (z-score) [43]: -0.23
glycan array binding signal (z-score) [44]: -0.306
glycan array binding signal (z-score) (Neu5Gc(a2-6)GalNAc): -0.232
